Source: PubChem BioAssay AID1745853 (National Center for Advancing Translational Sciences (NCATS), 2022)
Several values for one entry are separate records, joined by “and”; a condition that tells them apart may be missing. Equal entries are not always repeated. The list shows a part of the results. Further columns of the screen follow, without active or inactive calls.

Key:
Experiment in all cases: Primary Screen for Target Class Profiling of Small Molecule Inhibitors of Methyltransferases
[1] = target: Glycine N-methyltransferase (Homo sapiens) (UniProt Q14749); settings: purified enzyme, MTase-Glo SAH luminescence; measured here: GNMT inhibition; at 40 µM; stronger effect = lower value
In short: (§1)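 Each enzyme was assayed with SAM and its substrate. SAH formation detected by MTase-Glo luminescence; single-point 40 uM screen[…].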

[2] = target: Guanidinoacetate N-methyltransferase (Homo sapiens) (UniProt Q14353); settings: purified enzyme, MTase-Glo SAH luminescence; measured here: GAMT inhibition; at 40 µM; stronger effect = lower value
In short: as §1

[3] = target: Histamine N-methyltransferase (Homo sapiens) (UniProt P50135); settings: purified enzyme, MTase-Glo SAH luminescence; measured here: HNMT inhibition; at 40 µM; stronger effect = lower value
In short: as §1

[4] = target: Nicotinamide N-methyltransferase (Homo sapiens) (UniProt P40261); settings: purified enzyme, MTase-Glo SAH luminescence; measured here: NNMT inhibition; at 40 µM; stronger effect = lower value
In short: as §1

[5] = target: Phenylethanolamine N-methyltransferase (Homo sapiens) (UniProt P11086); settings: purified enzyme, MTase-Glo SAH luminescence; measured here: PNMT inhibition; at 40 µM; stronger effect = lower value
In short: as §1
% is scaled to controls: 0 for no effect and ±100 for the full control effect.

Row | SMILES | activity change, negative = inhibition [1] | activity change, negative = inhibition [2] | activity change, negative = inhibition [3] | activity change, negative = inhibition [4] | activity change, negative = inhibition [5]
1 | COc1ccccc1CNC(=O)C1(C)Cn2cnc(C(=O)NCc3cccnc3)c2C(=O)N1C1CC1 (stereo not drawn) | -3.4% | 2.72% | -0.226% | -2.17% | -3.69%
2 | C=C[C@H]1[C@H](O[C@@H]2O[C@H](CO)[C@@H](O)[C@H](O)[C@H]2O)OC=C(C(=O)OC)[C@H]1CC(=O)O | -2.97% | -11.8% | 5.13% | -23% | -5.66%
3 | Cc1ccc(N2C(=O)c3cc(-c4ccco4)nn3CC2(C)C(=O)NC2CCCCC2)c(C)c1 (stereo not drawn) | -6.07% | -8.33% | 6.08% | -5.7% | -2.69%
4 | C=C1C(=O)O[C@H]2C1[C@H](OC(=O)/C(=C/CO)COC(=O)/C(C)=C/CO)CC(=C)[C@@H]1CC(=O)[C@@H](C)[C@@H]12 (stereo partly drawn) | -13.5% | -27.8% | 4.51% | -38.8% | -9.9%
5 | Cc1ccccc1CN1C(=O)c2cc3occc3n2CC1(C)C(=O)NC1CCCCC1 (stereo not drawn) | -2.24% | 4.14% | 2.11% | 5.64% | -1.69%
6 | CN1C(=O)c2cc(C(=O)NCCc3ccccc3)nn2CC1(C)C(=O)NC1CCCCC1 (stereo not drawn) | 1.41% | 4.14% | 0.769% | 1.79% | 2.94%
7 | O=C(CCn1ccc2cc(S(=O)(=O)N3CCCCC3)ccc21)NCc1ccccn1 | -2.9% | -2.66% | 1.17% | -4.72% | -1.99%
8 | O=C(CCc1nnc2n(Cc3ccccc3)c(=O)c3ccccc3n12)N1CCC(Cc2ccccc2)CC1 | -4.81% | 1.3% | -2.09% | -4.17% | -4.04%
9 | O=C(OC(C(F)(F)F)C(F)(F)F)N1CCN(Cc2cccc(Oc3ccccc3)c2)CC1 | -0.343% | -11.1% | 7.38% | -17.3% | -5.77%
10 | COC(C(=O)Nc1ccnn1C1CCN(C(=O)CO)CC1)c1ccccc1 (stereo not drawn) | -1.06% | -7.92% | -0.309% | -1.61% | -1.3%
11 | CN(Cc1ccc(-c2ccccc2)cc1)C(=O)Cc1ccccn1 | -9.49% | -2.48% | -6.36% | -17.2% | -6.55%
12 | CCCCNc1nc2c(S(=O)(=O)c3ccc(C(C)C)cc3)nnn2c2ccccc12 | -0.643% | -0.259% | -3.92% | -15.6% | -4.36%
13 | O=C(Nc1ccc(N(Cc2ccsc2)C(=O)Cn2nnc3ccccc32)cc1)C1CC1 | 0.096% | 1.57% | 3% | -17.9% | -5.85%
14 | O=C1CN(Cc2ccccc2Cl)S(=O)(=O)c2ccccc2N1Cc1cccc(F)c1 | 15.1% | 0% | 8.48% | 1.28% | 4.43%
15 | Cc1cccc(-c2noc([C@@H]3Cc4nc[nH]c4CN3C(=O)c3ccc(-c4ccccc4)cc3)n2)c1 | -3.79% | -2.57% | -1.1% | -3.98% | -15.8%
16 | Cc1ncc2c(c1CNC(=O)CC(C)c1ccccc1)CCNC2 (stereo not drawn) | -6.14% | -8.97% | -5.55% | -15% | 5.16%
17 | CN(C)c1nc(N(C)C)nc(N(C)C)n1 | 4.01% | -6.23% | 7.86% | -9.08% | -5.18%
18 | CC(C)CCNC(=O)C1(C)Cn2c(ccc2-c2ccco2)C(=O)N1Cc1ccc2c(c1)OCO2 (stereo not drawn) | -3.02% | 0% | 3.84% | 1.8% | -1.79%
19 | CC(C)NC(=O)c1ccc2c(=O)n(C(C)C)c3nn(CC(=O)Nc4ccccc4Cl)c(=O)n3c2c1 | 5.15% | 2.62% | 9.68% | -0.603% | 7.95%
20 | COc1cc2c(cc1-c1c(C)noc1C)ncc1[nH]c(=O)n([C@H](C)c3ccccn3)c12 | -89.4% and -63.9% | -6.04% and 2.33% | -12.5% and -9.83% | -46.8% and -43.9% and -43.3% | -12.6% and 17.8% and -3.62%

Row | SMILES | activity change, negative = inhibition [1] | activity change, negative = inhibition [2] | activity change, negative = inhibition [3] | activity change, negative = inhibition [4] | activity change, negative = inhibition [5]
21 | Cn1c2c(c3ccccc31)C(C(=O)NC1CCCCCC1)N(Cc1ccc(F)cc1)C(=O)CS2 (stereo not drawn) | 2.64% | 2.65% | 0.164% | -10.1% | -4.54%
22 | COc1nccc(-c2c(-c3ccc(F)cc3)ncn2C2CCNCC2)n1 | 2.12% | 9.97% | 0.312% | -13.2% | 2.08%
23 | Cc1[nH]c(=O)[nH]c(=O)c1CC(=O)N[C@@H]1COCC[C@@H]1OCc1ccccc1 | -7.08% | -12.6% | -4.84% | -17.6% | -14.8%
24 | c1c(-c2nc(C3CCOC3)no2)sc2c1CCCC2 (stereo not drawn) | -4.58% | -1.15% | -1.27% | -5.03% | 1.55%
25 | CCOc1ccc(C2c3cccn3-c3sc4c(c3CN2C(=O)Nc2ccccc2)CCCC4)cc1 (stereo not drawn) | -0.016% | 3.86% | 1.84% | -4.88% | 1.75%
26 | Cn1cc(CN2C[C@H](C(=O)NCc3ccccc3)C[C@H]2c2cccc(C(F)(F)F)c2)cn1 | -2.74% | -1.08% | 1% | -3.37% | 1.28%
27 | CCN1CCN(c2nc3c(S(=O)(=O)c4ccc(C)c(C)c4)nnn3c3ccc(Cl)cc23)CC1 | -12.8% | 1.23% | -19.9% | -11.9% | -2.83%
28 | COc1ccccc1CNC(=O)c1ccc2c(=O)nc3c(-c4cccc(C)c4)n[nH]n3c2c1 | -10.7% | -5.35% | 1.3% | -3.82% | -5.45%
29 | CCn1cc(C(=O)N[C@@H]2CN(c3ncccn3)C[C@H]2CO)cn1 | -6.06% | -9.82% | -3.19% | -18.9% | -5.13%
30 | O=C1CN(Cc2cccc(Br)c2)S(=O)(=O)c2ccccc2N1Cc1cccc(F)c1 | 18.9% | 1.98% | 14.3% | 10.3% | 11.5%
31 | Cc1c(C(=O)Nc2cccc(-c3nc4ccccc4s3)c2)oc2ccc(F)cc12 | – | -24% | – | -33.3% | -4.22%
32 | COc1cc(Cl)ccc1C(=O)N1CC[C@@](C)(O)[C@@H](O)C1 | -8.59% | -14.5% | -5.98% | -20.3% | -12.4%
33 | COC[C@@H]1[C@H](C(=O)N2CCN(Cc3ccccc3)CC2)CCC(=O)N1C | -2.77% | -3.4% | 1.41% | -2.46% | -1.75%
34 | CC(C)CCn1c(=O)c2ccccc2n2c(SCC(=O)NC3CCCCC3)nnc12 | 5.3% | 3.02% | 12.9% | -1.5% | 6.75%
35 | CCN1CCN(c2nc3c(-c4cccc(C)c4)nnn3c3ccc(Cl)cc23)CC1 | -4.07% | 4.89% | 4.06% | 6.21% | -0.917%
36 | CCCn1c(=O)c2ccccc2n2c(=O)n(Cc3cccc(OC)c3)nc12 | -0.667% | 3.04% | 6.54% | -5.06% | 1.66%
37 | C/C(=C\CCC(C)CCO)C(=O)O[C@@H]1[C@@H](O)[C@H](OC2OC=C(C(=O)O)C3CCC(C)(O)C23)O[C@H](CO)[C@H]1O (stereo partly drawn) | 1.94% | -2.57% | 6.6% | -9.55% | -4.64%
38 | Cc1cccc(Cn2nc(C3CCCNC3)n(-c3ccccc3)c2=O)c1 (stereo not drawn) | -0.936% | 0.059% | -0.767% | 0.236% | 2.28%
39 | CCc1cc(N2CCC(NCCc3cccc(Cl)c3)CC2)nc(C)n1 | -8.03% | -9.15% | -40.4% | -13.5% | -19.2%
40 | C[C@]1(CO)[C@H]2Cc3sc(NC(=O)c4cccs4)nc3[C@@H](CC(=O)O)[C@]2(C)CC[C@H]1O | -7.21% | -5.62% | -0.257% | -13.6% | -0.299%

Row | SMILES | activity change, negative = inhibition [1] | activity change, negative = inhibition [2] | activity change, negative = inhibition [3] | activity change, negative = inhibition [4] | activity change, negative = inhibition [5]
41 | CC1C2=CC(=O)OC2(O)CC2C1C(OC(=O)c1ccccc1)C(OC(=O)c1ccccc1)C1(O)C2(C)CCC(O)C1(C)C(=O)O (stereo not drawn) | -0.062% | -9.69% | 4.94% | -18.5% | -0.513%
42 | O=C(O)[C@H]1C[C@H](C(=O)NCc2ccccn2)CN(Cc2ccccc2)C1 | -5.91% | -10.9% | -3.25% | -13.3% | -10.5%
43 | O=C1c2ccccc2C(=O)c2cc(S(=O)(=O)NC3CCCCC3)ccc21 | -6.76% | 1.94% | 1.44% | -11.5% | -12.1%
44 | Nc1nc2c(nc(Br)n2C2OC3COP(=O)(O)O[C@@H]3C2O)c(=O)[nH]1 (stereo partly drawn) | 1.5% | 12.3% | 3.51% | -3.67% | 7.5%
45 | C#Cc1cnc2[nH]c(=O)n(C(CC)CC)c2n1 | -1.21% | -2.28% | 7% | -14.4% | 0.165%
46 | CCc1cc(C(=O)N2CCC(c3nnc(Cn4cncn4)n3C)CC2)no1 | 0.365% | -2.62% | 0.755% | -3.54% | 0.257%
47 | Cc1ccc(S(=O)(=O)N2CCC[C@H]2c2ccc(F)cc2)cc1 | -3.73% | -7.21% | -1.43% | -35.8% | -10.5%
48 | C[S+](=O)([O-])N1CCC2(C1)N=C(c1ccccn1)C(=O)N2 (stereo not drawn) | -2.83% | -5.81% | -5.57% | -10% | -15.2%
49 | CC(C)(C)C(=O)Nc1nc2c(s1)C[C@@H]1[C@](C)(CO)[C@H](O)CC[C@@]1(C)[C@@H]2CC(=O)NC1CC1 | -1.64% | 1.68% | 0.127% | -2.92% | -2.57%
50 | COc1ccccc1CNC(=O)C1(C)Cn2nc(-c3ccccc3)cc2C(=O)N1Cc1ccc(C)cc1 (stereo not drawn) | -5.14% | 0.217% | -2.21% | -7.85% | -2.69%
51 | COc1cc(CCC(=O)N2C[C@@H](C(N)=O)[C@H](c3nc(C)no3)C2)on1 | -3.2% | -4.74% | 0.296% | -8.51% | -16.9%
52 | COc1cccc(CN2CCC(Oc3ccccc3-c3nc(-c4ccncc4)no3)C2)c1 (stereo not drawn) | -16.7% | -8.17% | -35.4% | -37.8% | -7.69%
53 | O=C(Nc1cccc(F)c1)N1CCn2cccc2C1Cc1ccccc1 (stereo not drawn) | 11.8% | 0% | 5.79% | 4.2% | 7.2%
54 | CCCn1c(=O)c2cc(F)ccc2n2c(SCC(=O)Nc3ccc4c(c3)OCCO4)nnc12 | -9.81% | 0.53% | 9.14% | -7.17% | 4.95%
55 | O=C(NCCc1ccccc1)c1cc(-c2ccc(Cl)cc2)nc2n[nH]c(-c3ccccc3)c12 | 3.6% | 3.64% | -4.82% | -0.886% | -3.58%
56 | Cc1ccc(C(=O)Cn2nc3n(CC(C)C)c(=O)c4ccc(C(=O)NC(C)C)cc4n3c2=O)c(C)c1 | 9.17% | 0.666% | 10.9% | 4.3% | 7.47%
57 | CC(=O)O[C@]1(C(C)=O)CC[C@H]2[C@@H]3C[C@H](C)C4=CC(=O)CC[C@]4(C)[C@H]3CC[C@@]21C | 6.02% | 5.14% | 8.48% | -27.2% | 3.01%
58 | CSCCC(NS(=O)(=O)c1ccc2c(c1)oc(=O)n2C)C(=O)N1CCN(Cc2ccccc2)CC1 (stereo not drawn) | 5.95% | 0% | 5.3% | -0.808% | -0.457%
59 | O=C(O)c1cc(-c2ccccc2)nc2ccccc12 | -0.016% | -0.694% | 2.96% | -11.9% | -0.668%
